# This is one part of the list.
# Experiments:
# Experiment in all cases: glycan array binding signal (z-score within array); higher = stronger binding
# Details in all cases: glycan notation: IUPAC condensed, linker removed
# [1] = target: Fuc(a1-2)Gal
# In short: (§1)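 The binding signal is a Z-score computed within each array. Data were drawn from 3228 arrays in the Consortium for Functional Glycomics database, restricted to those with a known protein sequence. Scores were averaged over arrays of the same protein sequence at different concentrations or buffers, and over linkers, and negative values can be taken as non-binding.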
# [2] = target: Fuc(a1-2)Gal(b1-3)GalNAc
# In short: as §1
# [3] = target: Fuc(a1-2)Gal(b1-3)GalNAc(a1-3)[Fuc(a1-2)]Gal(b1-4)Glc
# In short: as §1
# [4] = target: Fuc(a1-2)Gal(b1-3)GalNAc(a1-3)[Fuc(a1-2)]Gal(b1-4)GlcNAc
# In short: as §1
# [5] = target: Fuc(a1-2)Gal(b1-3)GalNAc(b1-3)Gal
# In short: as §1
# [6] = target: Fuc(a1-2)Gal(b1-3)GalNAc(b1-3)Gal(a1-4)Gal(b1-4)Glc
# In short: as §1
# [7] = target: Fuc(a1-2)Gal(b1-3)GalNAc(b1-4)[Neu5Ac(a2-3)]Gal(b1-4)Glc
# In short: as §1
# [8] = target: Fuc(a1-2)Gal(b1-3)GlcNAc
# In short: as §1
# [9] = target: Fuc(a1-2)Gal(b1-3)GlcNAc(b1-2)Man(a1-3)[Fuc(a1-2)Gal(b1-3)GlcNAc(b1-2)Man(a1-6)]Man(b1-4)GlcNAc(b1-4)GlcNAc
# In short: as §1
# [10] = target: Fuc(a1-2)Gal(b1-3)GlcNAc(b1-2)Man(a1-3)[Fuc(a1-2)Gal(b1-3)GlcNAc(b1-2)Man(a1-6)]Man(b1-4)GlcNAc(b1-4)[Fuc(a1-6)]GlcNAc
# In short: as §1
# [11] = target: Fuc(a1-2)Gal(b1-3)GlcNAc(b1-3)Gal(b1-4)Glc
# In short: as §1
# [12] = target: Fuc(a1-2)Gal(b1-3)GlcNAc(b1-3)GalNAc
# In short: as §1
# [13] = target: Fuc(a1-2)Gal(b1-3)GlcNAc(b1-3)[Fuc(a1-2)Gal(b1-3)GlcNAc(b1-6)]GalNAc
# In short: as §1
# [14] = target: Fuc(a1-2)Gal(b1-3)GlcNAc(b1-3)[Gal(b1-4)GlcNAc(b1-6)]Gal(b1-4)Glc
# In short: as §1
# [15] = target: Fuc(a1-2)Gal(b1-3)GlcNAc(b1-3)[Neu5Ac(a2-6)Gal(b1-4)GlcNAc(b1-6)]Gal(b1-4)Glc
# In short: as §1
# [16] = target: Fuc(a1-2)Gal(b1-3)GlcNAc6S
# In short: as §1
# [17] = target: Fuc(a1-2)Gal(b1-3)[Fuc(a1-4)]GlcNAc
# In short: as §1
# [18] = target: Fuc(a1-2)Gal(b1-3)[Fuc(a1-4)]GlcNAc(b1-2)Man(a1-3)[Fuc(a1-2)Gal(b1-3)[Fuc(a1-4)]GlcNAc(b1-2)Man(a1-3)]Man(b1-4)GlcNAc(b1-4)GlcNAc
# In short: as §1
# [19] = target: Fuc(a1-2)Gal(b1-3)[Fuc(a1-4)]GlcNAc(b1-2)Man(a1-3)[Fuc(a1-2)Gal(b1-3)[Fuc(a1-4)]GlcNAc(b1-2)Man(a1-6)]Man(b1-4)GlcNAc(b1-4)[Fuc(a1-6)]GlcNAc(b1-4)[Fuc(a1-6)]GlcNAc
# In short: as §1
# [20] = target: Fuc(a1-2)Gal(b1-3)[Fuc(a1-4)]GlcNAc(b1-3)[Fuc(a1-3)[Gal(b1-4)]GlcNAc(b1-6)]Gal(b1-4)Glc
# In short: as §1
# [21] = target: Fuc(a1-2)Gal(b1-3)[Fuc(a1-4)]GlcNAc(b1-3)[Gal(b1-4)GlcNAc(b1-6)]Gal(b1-4)Glc
# In short: as §1
# [22] = target: Fuc(a1-2)Gal(b1-4)Fuc(a1-3)]GlcNAc(b1-2)Man(a1-3)[Fuc(a1-2)Gal(b1-4)[Fuc(a1-3)]GlcNAc(b1-2)Man(a1-6)]Man(b1-4)GlcNAc(b1-4)GlcNAc
# In short: as §1
# [23] = target: Fuc(a1-2)Gal(b1-4)Glc
# In short: as §1
# [24] = target: Fuc(a1-2)Gal(b1-4)Glc6S
# In short: as §1
# [25] = target: Fuc(a1-2)Gal(b1-4)GlcNAc
# In short: as §1
# [26] = target: Fuc(a1-2)Gal(b1-4)GlcNAc(b1-2)Man
# In short: as §1
# [27] = target: Fuc(a1-2)Gal(b1-4)GlcNAc(b1-2)Man(a1-3)[Fuc(a1-2)Gal(b1-4)GlcNAc(b1-2)Man(a1-6)]Man(b1-4)GlcNAc(b1-4)GlcNAc
# In short: as §1
# [28] = target: Fuc(a1-2)Gal(b1-4)GlcNAc(b1-2)Man(a1-3)[Fuc(a1-2)Gal(b1-4)GlcNAc(b1-2)Man(a1-6)]Man(b1-4)GlcNAc(b1-4)[Fuc(a1-6)]GlcNAc
# In short: as §1
# [29] = target: Fuc(a1-2)Gal(b1-4)GlcNAc(b1-2)[Fuc(a1-2)Gal(b1-4)GlcNAc(b1-4)]Man(a1-3)[Fuc(a1-2)Gal(b1-4)GlcNAc(b1-2)Man(a1-6)]Man(b1-4)GlcNAc(b1-4)GlcNAc
# In short: as §1
# [30] = target: Fuc(a1-2)Gal(b1-4)GlcNAc(b1-3)Gal(b1-4)GlcNAc
# In short: as §1
# [31] = target: Fuc(a1-2)Gal(b1-4)GlcNAc(b1-3)Gal(b1-4)GlcNAc(b1-2)Man(a1-3)[Fuc(a1-2)Gal(b1-4)GlcNAc(b1-3)Gal(b1-4)GlcNAc(b1-2)Man(a1-6)]Man(b1-4)GlcNAc(b1-4)GlcNAc
# In short: as §1
# [32] = target: Fuc(a1-2)Gal(b1-4)GlcNAc(b1-3)Gal(b1-4)GlcNAc(b1-3)Gal(b1-4)GlcNAc
# In short: as §1
# [33] = target: Fuc(a1-2)Gal(b1-4)GlcNAc(b1-3)GalNAc
# In short: as §1
# [34] = target: Fuc(a1-2)Gal(b1-4)GlcNAc(b1-3)[Fuc(a1-2)Gal(b1-4)GlcNAc(b1-6)]GalNAc
# In short: as §1
# [35] = target: Fuc(a1-2)Gal(b1-4)GlcNAc(b1-3)[Fuc(a1-3)[Gal(b1-4)]GlcNAc(b1-6)]Gal(b1-4)Glc
# In short: as §1
# [36] = target: Fuc(a1-2)Gal(b1-4)GlcNAc(b1-6)GalNAc
# In short: as §1
# [37] = target: Fuc(a1-2)Gal(b1-4)GlcNAc6S
# In short: as §1
# [38] = target: Fuc(a1-2)Gal(b1-4)[Fuc(a1-3)]GlcNAc
# In short: as §1
# [39] = target: Fuc(a1-2)Gal(b1-4)[Fuc(a1-3)]GlcNAc(b1-2)Man(a1-3)[Fuc(a1-2)Gal(b1-4)[Fuc(a1-3)]GlcNAc(b1-2)Man(a1-6)]Man(b1-4)GlcNAc(b1-4)[Fuc(a1-6)]GlcNAc
# In short: as §1
# [40] = target: Fuc(a1-2)Gal(b1-4)[Fuc(a1-3)]GlcNAc(b1-2)[Fuc(a1-2)Gal(b1-4)[Fuc(a1-3)]GlcNAc(b1-4)]Man(a1-3)[Fuc(a1-2)Gal(b1-4)[Fuc(a1-3)]GlcNAc(b1-2)Man(a1-6)]Man(b1-4)GlcNAc(b1-4)GlcNAc
# In short: as §1
# [41] = target: Fuc(a1-2)Gal(b1-4)[Fuc(a1-3)]GlcNAc(b1-3)Gal(b1-4)[Fuc(a1-3)]GlcNAc
# In short: as §1
# [42] = target: Fuc(a1-2)Gal(b1-4)[Fuc(a1-3)]GlcNAc(b1-3)Gal(b1-4)[Fuc(a1-3)]GlcNAc(b1-3)Gal(b1-4)[Fuc(a1-3)]GlcNAc
# In short: as §1
# [43] = target: Fuc(a1-2)Gal(b1-4)[Fuc(a1-3)]GlcNAc(b1-3)GalNAc
# In short: as §1
# [44] = target: Fuc(a1-2)Gal(b1-4)[Fuc(a1-3)]GlcNAc(b1-3)[Neu5Ac(a2-6)Gal(b1-4)GlcNAc(b1-6)]Gal(b1-4)Glc
# In short: as §1
# [45] = target: Fuc(a1-2)Gal3S(b1-4)GlcNAc
# In short: as §1
binder,measurement,setting,value
"CGL (Crenomytilus grayanus), H2FH31 (protein) MTTFLIKHKASGKFLHPYGGSSNPANNTKLVLHSDIHERMYFQFDVVDERWGYIKHVASGKIVHPYGGQANPPNETNMVLHQDRHDRALFAMDFFNDNIMHKGGKYIHPKGGSPNPPNNTETVIHGDKHAAMEFIFVSPKNKDKRVLVYA",glycan array binding signal (z-score),[1],0.532
same,glycan array binding signal (z-score),[2],-0.364
same,glycan array binding signal (z-score),[3],-0.387
same,glycan array binding signal (z-score),[4],-0.342
same,glycan array binding signal (z-score),[5],-0.345
same,glycan array binding signal (z-score),[6],-0.364
same,glycan array binding signal (z-score),[7],-0.326
same,glycan array binding signal (z-score),[8],-0.382
same,glycan array binding signal (z-score),[9],-0.195
same,glycan array binding signal (z-score),[10],-0.334
same,glycan array binding signal (z-score),[11],-0.358
same,glycan array binding signal (z-score),[12],-0.419
same,glycan array binding signal (z-score),[13],0.622
same,glycan array binding signal (z-score),[14],-0.054
same,glycan array binding signal (z-score),[15],-0.433
same,glycan array binding signal (z-score),[16],-0.43
same,glycan array binding signal (z-score),[17],-0.372
same,glycan array binding signal (z-score),[18],-0.309
same,glycan array binding signal (z-score),[19],-0.416
same,glycan array binding signal (z-score),[20],-0.386
same,glycan array binding signal (z-score),[21],-0.302
same,glycan array binding signal (z-score),[22],-0.343
same,glycan array binding signal (z-score),[23],-0.372
same,glycan array binding signal (z-score),[24],-0.242
same,glycan array binding signal (z-score),[25],-0.283
same,glycan array binding signal (z-score),[26],-0.309
same,glycan array binding signal (z-score),[27],-0.063
same,glycan array binding signal (z-score),[28],-0.357
same,glycan array binding signal (z-score),[29],-0.249
same,glycan array binding signal (z-score),[30],-0.106
same,glycan array binding signal (z-score),[31],0.855
same,glycan array binding signal (z-score),[32],-0.056
same,glycan array binding signal (z-score),[33],-0.281
same,glycan array binding signal (z-score),[34],-0.067
same,glycan array binding signal (z-score),[35],-0.371
same,glycan array binding signal (z-score),[36],0.218
same,glycan array binding signal (z-score),[37],-0.242
same,glycan array binding signal (z-score),[38],-0.391
same,glycan array binding signal (z-score),[39],-0.302
same,glycan array binding signal (z-score),[40],-0.274
same,glycan array binding signal (z-score),[41],-0.409
same,glycan array binding signal (z-score),[42],-0.344
same,glycan array binding signal (z-score),[43],-0.375
same,glycan array binding signal (z-score),[44],-0.372
same,glycan array binding signal (z-score),[45],-0.399

# Source: the supplement of paper PMC8728848
